Assay [1] has as its target vimentin^ROD (residues T99–I249) D176K (human) (UniProt P08670). Nature of the assay: MST; 50 nM NT647-labelled vimentin^ROD, linker titrated 780 nM to 800 uM; 150 mM NaCl, 20 mM HEPES pH 7.5, 0.015% Tween 20; 25 C; one-site binding model; both purified.
Assay [2] deals with vimentin^ROD (residues T99–I249) E187K (human) (UniProt P08670). The description is as above.

Amino acid sequences for entries named in this document (tags omitted). A change or cut given only in a name is not applied to a line headed by its entry. Chains listed by the source or under a name are the forms on record and can include a tag or linker. Residues count along the entry.
vimentin^ROD (residues T99–I249) D176K (P08670, form named): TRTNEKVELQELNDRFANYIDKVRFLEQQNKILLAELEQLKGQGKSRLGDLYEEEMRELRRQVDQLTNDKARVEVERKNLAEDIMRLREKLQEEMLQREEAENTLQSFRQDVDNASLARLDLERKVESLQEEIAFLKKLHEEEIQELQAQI
vimentin^ROD (residues T99–I249) E187K (P08670, form named): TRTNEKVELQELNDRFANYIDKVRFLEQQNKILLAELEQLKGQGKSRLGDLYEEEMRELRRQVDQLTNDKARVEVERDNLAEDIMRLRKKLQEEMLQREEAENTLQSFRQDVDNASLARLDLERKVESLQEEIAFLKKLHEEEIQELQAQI

Results are given in words; binding and its absence hold for the method and conditions named.

B1: periplakin linker domain (K1646–K1756), wild-type (domain or fragment, UniProt O60437 1646-1756)
chain: KREQRENHLRRSIVVIHPDTGRELSPEEAHRAGLIDWNMFVKLRSQECDWEEISVKGPNGESSVIHDRKSGKKFSIEEALQSGRLTPAQYDRYVNKDMSIQELAVLVSGQK
In the case of B1, the binding entry in assay [1] and in assay [2] was “no binding (tested: 800 μM)” in each case.

The record behind these values is publication PMC7035337.
